Data from patent US11618753B2 (priority 2018, dated 2023).

tested on: MLKL phosphorylation, HT29-L23 human colorectal adenocarcinoma cells; test: cells; details: read-out: pMLKL HCS Cell Assay (IC50, uM)

| SMILES | IC50 |
| --- | --- |
| CC(CC(=O)N1C[C@H](F)[C@H](NC(=O)c2cc(-c3cc(CN4CCC(C(F)(F)F)CC4)c4c(N)ncnn34)ccc2Cl)C1)C(F)(F)F (stereo partly drawn) [Example 1150, 5-(4-amino-5-{[4-(trifluoromethyl)piperidin-1-yl]methyl}pyrrolo[2,1-f][1,2,4]triazin-7-yl)-2-chloro-N-[(3R,4S)-4-fluoro-1-(4,4,4-trifluoro-3-methylbutanoyl)pyrrolidin-3-yl]benzamide] | 0.0013 µM |
| Nc1ncnn2c(-c3ccc(Cl)c(C(=O)N[C@@H]4CN(C(=O)C5CC(F)C5)C[C@@H]4F)c3)cc(CN3CCC(C(F)(F)F)CC3)c12 (stereo partly drawn) [Example 1151, 5-(4-amino-5-{[4-(trifluoromethyl)piperidin-1-yl]methyl}pyrrolo[2,1-f][1,2,4]triazin-7-yl)-2-chloro-N-[(3R,4S)-4-fluoro-1-(3-fluorocyclobutanecarbonyl)pyrrolidin-3-yl]benzamide] | 0.0028 µM |
| CC(C)(F)C(=O)N1C[C@H](F)[C@H](NC(=O)c2cc(-c3cc(CN4CCC(C(F)(F)F)CC4)c4c(N)ncnn34)ccc2Cl)C1 [Example 1152, 5-(4-amino-5-{[4-(trifluoromethyl)piperidin-1-yl]methyl}pyrrolo[2,1-f][1,2,4]triazin-7-yl)-2-chloro-N-[(3R,4S)-4-fluoro-1-(2-fluoro-2-methylpropanoyl)pyrrolidin-3-yl]benzamide] | 0.001 µM |
| CC(O)(CC(=O)N1C[C@H](F)[C@H](NC(=O)c2cc(-c3cc(CN4CCC(C(F)(F)F)CC4)c4c(N)ncnn34)ccc2Cl)C1)C(F)(F)F (stereo partly drawn) [Example 1153, 5-(4-amino-5-{[4-(trifluoromethyl)piperidin-1-yl]methyl}pyrrolo[2,1-f][1,2,4]triazin-7-yl)-2-chloro-N-[(3R,4S)-4-fluoro-1-(4,4,4-trifluoro-3-hydroxy-3-methylbutanoyl)pyrrolidin-3-yl]benzamide] | 0.0028 µM |
| CC(C)CC(=O)N1C[C@H](F)[C@H](NC(=O)c2cc(-c3cc(CN4CCC(C(F)(F)F)CC4)c4c(N)ncnn34)ccc2Cl)C1 [Example 1154, 5-(4-amino-5-{[4-(trifluoromethyl)piperidin-1-yl]methyl}pyrrolo[2,1-f][1,2,4]triazin-7-yl)-2-chloro-N-[(3R,4S)-4-fluoro-1-(3-methylbutanoyl)pyrrolidin-3-yl]benzamide] | 0.001 µM |
| Nc1ncnn2c(-c3ccc(Cl)c(C(=O)N[C@@H]4CN(C(=O)CC(F)(F)F)C[C@@H]4F)c3)cc(CN3CCC(C(F)(F)F)CC3)c12 [Example 1155, 5-(4-amino-5-{[4-(trifluoromethyl)piperidin-1-yl]methyl}pyrrolo[2,1-f][1,2,4]triazin-7-yl)-2-chloro-N-[(3R,4S)-4-fluoro-1-(3,3,3-trifluoropropanoyl)pyrrolidin-3-yl]benzamide] | 0.011 µM |
| Nc1ncnn2c(-c3ccc(Cl)c(C(=O)N[C@@H]4CN(C(=O)CC(O)(C(F)(F)F)C(F)(F)F)C[C@@H]4F)c3)cc(CN3CCC(C(F)(F)F)CC3)c12 [Example 1156] | 0.003 µM |
| Nc1ncnn2c(-c3ccc(Cl)c(C(=O)N[C@@H]4CN(C(=O)C5CC(F)(F)C5)C[C@@H]4F)c3)cc(CN3CCC(C(F)(F)F)CC3)c12 [Example 1157] | 0.0017 µM |
| Nc1ncnn2c(-c3ccc(Cl)c(C(=O)N[C@@H]4CN(C(=O)c5ccccc5F)C[C@@H]4F)c3)cc(CN3CCC(C(F)(F)F)CC3)c12 [Example 1158, 5-(4-amino-5-{[4-(trifluoromethyl)piperidin-1-yl]methyl}pyrrolo[2,1-f][1,2,4]triazin-7-yl)-2-chloro-N-[(3R,4S)-4-fluoro-1-(2-fluorobenzoyl)pyrrolidin-3-yl]benzamide] | 0.0023 µM |
| C[C@@](O)(C(=O)N1C[C@H](F)[C@H](NC(=O)c2cc(-c3cc(CN4CCC(C(F)(F)F)CC4)c4c(N)ncnn34)ccc2Cl)C1)C(F)(F)F [Example 1159, 5-(4-amino-5-{[4-(trifluoromethyl)piperidin-1-yl]methyl}pyrrolo[2,1-f][1,2,4]triazin-7-yl)-2-chloro-N-[(3R,4S)-4-fluoro-1-[(2R)-3,3,3-trifluro-2-hydroxy-2-methylpropanoyl]pyrrolidin-3-yl]benzamide] | 0.00085 µM |
| Nc1ncnn2c(-c3ccc(Cl)c(C(=O)N[C@@H]4CN(C(=O)C5CCC(F)(F)CC5)C[C@@H]4F)c3)cc(CN3CCC(C(F)(F)F)CC3)c12 [Example 1160, 5-(4-amino-5-{[4-(trifluoromethyl)piperidin-1-yl]methyl}pyrrolo[2,1-f][1,2,4]triazin-7-yl)-2-chloro-N-[(3R,4S)-1-(4,4-difluorocyclohexanecarbonyl)-4-fluoropyrrolidin-3-yl]benzamide] | 0.01 µM |
| Nc1ncnn2c(-c3ccc(Cl)c(C(=O)N[C@@H]4CN(C(=O)C5CCC(F)(F)C5)C[C@@H]4F)c3)cc(CN3CCC(C(F)(F)F)CC3)c12 (stereo partly drawn) [Example 1161, 5-(4-amino-5-{[4-(trifluoromethyl)piperidin-1-yl]methyl}pyrrolo[2,1-f][1,2,4]triazin-7-yl)-2-chloro-N-[(3R,4S)-1-(3,3-difluorocyclopentanecarbonyl)-4-fluoropyrrolidin-3-yl]benzamide] | 0.0026 µM |
| CC(C(=O)N1C[C@H](F)[C@H](NC(=O)c2cc(-c3cc(CN4CCC(C(F)(F)F)CC4)c4c(N)ncnn34)ccc2Cl)C1)C(F)(F)F (stereo partly drawn) [Example 1162, 5-(4-amino-5-{[4-(trifluoromethyl)piperidin-1-yl]methyl}pyrrolo[2,1-f][1,2,4]triazin-7-yl)-2-chloro-N-[(3R,4S)-4-fluoro-1-(3,3,3-trifluoro-2-methylpropanoyl)pyrrolidin-3-yl]benzamide] | 0.0032 µM |
| Nc1ncnn2c(-c3cccc(C(=O)N[C@@H]4CN(C(=O)[C@@H](O)C(F)(F)F)C[C@@H]4F)c3)cc(CN3CC(F)(F)C3)c12 [Example 1164, 3-{4-amino-5-[(3,3-difluoroazetidin-1-yl)methyl]pyrrolo[2,1-f][1,2,4]triazin-7-yl}-N-[(3R,4S)-4-fluoro-1-[(2R)-3,3,3-trifluoro-2-hydroxypropanoyl]pyrrolidin-3-yl]benzamide] | 0.006 µM |
| CC(C)CC(=O)N1C[C@H](F)[C@H](NC(=O)c2cccc(-c3cc(CN4CC(F)(F)C4)c4c(N)ncnn34)c2)C1 [Example 1165, 3-{4-amino-5-[(3,3-difluoroazetidin-1-yl)methyl]pyrrolo[2,1-f][1,2,4]triazin-7-yl}-N-[(3R,4S)-4-fluoro-1-(3-methylbutanoyl)pyrrolidin-3-yl]benzamide] | 0.00065 µM |
| CC(C)(O)C(=O)N1C[C@H](F)[C@H](NC(=O)c2cccc(-c3cc(CN4CC(F)(F)C4)c4c(N)ncnn34)c2)C1 [Example 1166, 3-{4-amino-5-[(3,3-difluoroazetidin-1-yl)methyl]pyrrolo[2,1-f][1,2,4]triazin-7-yl}-N-[(3R,4S)-4-fluoro-1-(2-hydroxy-2-methylpropanoyl)pyrrolidin-3-yl]benzamide] | 0.0086 µM |
| Nc1ncnn2c(-c3cccc(C(=O)N[C@@H]4CN(C(=O)C5CCC5)C[C@@H]4F)c3)cc(CN3CC(F)(F)C3)c12 [Example 1168, 3-{4-amino-5-[(3,3-difluoroazetidin-1-yl)methyl]pyrrolo[2,1-f][1,2,4]triazin-7-yl}-N-[(3R,4S)-1-cyclobutanecarbonyl-4-fluoropyrrolidin-3-yl]benzamide] | 0.00037 µM |
| Nc1ncnn2c(-c3cccc(C(=O)N[C@@H]4CN(C(=O)CC(F)(F)F)C[C@@H]4F)c3)cc(CN3CC(F)(F)C3)c12 [Example 1169, 3-{4-amino-5-[(3,3-difluoroazetidin-1-yl)methyl]pyrrolo[2,1-f][1,2,4]triazin-7-yl}-N-[(3R,4S)-4-fluoro-1-(3,3,3-trifluoropropanoyl)pyrrolidin-3-yl]benzamide] | 0.0018 µM |
| CC(C)(C)C(=O)N1C[C@H](F)[C@H](NC(=O)c2cccc(-c3cc(CN4CC(F)(F)C4)c4c(N)ncnn34)c2)C1 [Example 1170, 3-{4-amino-5-[(3,3-difluoroazetidin-1-yl)methyl]pyrrolo[2,1-f][1,2,4]triazin-7-yl}-N-[(3R,4S)-1-(2,2-dimethylpropanoyl)-4-fluoropyrrolidin-3-yl]benzamide] | 0.00074 µM |
| Nc1ncnn2c(-c3cccc(C(=O)N[C@@H]4CN(C(=O)c5ccccc5F)C[C@@H]4F)c3)cc(CN3CC(F)(F)C3)c12 [Example 1171, 3-{4-amino-5-[(3,3-difluoroazetidin-1-yl)methyl]pyrrolo[2,1-f][1,2,4]triazin-7-yl}-N-[(3R,4S)-4-fluoro-1-(2-fluorobenzoyl)pyrrolidin-3-yl]benzamide] | 0.0013 µM |
| CC(C)C(=O)N1C[C@H](F)[C@H](NC(=O)c2cccc(-c3cc(CN4CC(F)(F)C4)c4c(N)ncnn34)c2)C1 [Example 1172, 3-{4-amino-5-[(3,3-difluoroazetidin-1-yl)methyl]pyrrolo[2,1-f][1,2,4]triazin-7-yl}-N-[(3R,4S)-4-fluoro-1-(2-methylpropanoyl)pyrrolidin-3-yl]benzamide] | 0.0055 µM |
| Nc1ncnn2c(-c3cccc(C(=O)N[C@@H]4CN(C(=O)c5ccc(F)cc5)C[C@@H]4F)c3)cc(CN3CC(F)(F)C3)c12 [Example 1173, 3-{4-amino-5-[(3,3-difluoroazetidin-1-yl)methyl]pyrrolo[2,1-f][1,2,4]triazin-7-yl}-N-[(3R,4S)-4-fluoro-1-(4-fluorobenzoyl)pyrrolidin-3-yl]benzamide] | 0.00095 µM |
| Nc1ncnn2c(-c3cccc(C(=O)N[C@@H]4CN(C(=O)C5CC(F)C5)C[C@@H]4F)c3)cc(CN3CC(F)(F)C3)c12 (stereo partly drawn) [Example 1174, 3-{4-amino-5-[(3,3-difluoroazetidin-1-yl)methyl]pyrrolo[2,1-f][1,2,4]triazin-7-yl}-N-[(3R,4S)-4-fluoro-1-(3-fluorocyclobutanecarbonyl)pyrrolidin-3-yl]benzamide] | 0.0013 µM |
| CC(C)(C(=O)N1C[C@H](F)[C@H](NC(=O)c2cccc(-c3cc(CN4CC(F)(F)C4)c4c(N)ncnn34)c2)C1)C(F)(F)F [Example 1176, 3-{4-amino-5-[(3,3-difluoroazetidin-1-yl)methyl]pyrrolo[2,1-f][1,2,4]triazin-7-yl}-N-[(3R,4S)-4-fluoro-1-(3,3,3-trifluoro-2,2-dimethylpropanoyl)pyrrolidin-3-yl]benzamide] | 0.0014 µM |
